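Five compound concentrations were applied to cells in 96-well plates for 48 hours; endpoints were derived by simple linear interpolation of the resulting dose-response curve. GI50: concentration for 50% inhibition of growth.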 Calls of active or inactive are those of the source. Rule as the data show it: active = GI50 up to about 1.1 µM and inactive = higher.
Each molecule was assayed on NCI-H322M (assay: NCI-60 cell line screen, 48 h).

Row | SMILES | GI50
1 | CC(C)=CCC[C@](C)(O)[C@H]1CC[C@]2(C)[C@@H]1[C@H](O)C[C@@H]1[C@@]3(C)CC[C@H](O[C@@H]4O[C@H](CO)[C@@H](O)[C@H](O)[C@H]4O)C(C)(C)[C@@H]3CC[C@]12C [GINSENOSIDE RH2] | inactive: 19.5 µM
2 | Cc1ccccc1NC(=O)CC(=O)N1N=C(N2c3ccccc3Sc3ccccc32)CC1c1ccccc1 (configuration not stated) | inactive: > 100 µM
3 | NC1=NC2=c3ccccc3=C(c3cnccn3)C2(c2cnccn2)c2ccccc21 (configuration not stated) | inactive: > 100 µM
4 | Cc1cccc(C)c1NC(=O)/C(Cl)=C(/Cl)C(=O)O | inactive: 34.8 µM
5 | COc1ccc(-c2coc3cc(OC)cc(O)c3c2=O)cc1 [4',7-DIMETHOXY-5-HYDROXYGENISTEIN] | inactive: > 100 µM
6 | COc1ccc(/C=C/C(=O)/C=C/c2ccc(OC)cc2)cc1 | inactive: > 100 µM
7 | Cc1ccccc1-c1c(N)nc(N)nc1C(=O)Nc1nccs1 | inactive: > 100 µM
8 | C=C(C)c1cc(C(C)(C)C)cc(C(=C)C)c1S(C)(=O)=O | inactive: > 100 µM
9 | CN(C)c1snc2c1c(=O)n(C)c(=O)n2C | inactive: > 100 µM
10 | CCN1c2ccccc2-n2c(C)nnc2-c2c(-c3ccccc3)n[nH]c21 | inactive: > 100 µM
11 | O=C1CCCCC/C1=C\c1cccc(F)c1 | inactive: > 100 µM
12 | CC1(C)[C@@H](Cn2ccc(=O)[nH]c2=O)CC[C@@]1(C)CO | inactive: > 100 µM
13 | CCOC(=O)C(C(=S)Nc1ccccc1)c1nn2c(=O)cc(C)nc2s1 (configuration not stated) | inactive: 21.6 µM
14 | CCOC(=O)C(C#N)C1=CC(=O)C(=O)c2ccc(O)cc21 (configuration not stated) | inactive: > 100 µM
15 | O=c1c(Sc2c(SCSc3cnc4ccccc4c3Sc3c[nH]c4ccccc4c3=O)cnc3ccccc23)c[nH]c2ccccc12 | inactive: > 100 µM
16 | C#CCN(Cc1ccc2[nH]c(N)nc(=O)c2c1)c1ccc(C(=O)NC(CCC(=O)O)C(=O)O)cc1 (configuration not stated) | inactive: > 100 µM
17 | CCOCN1COCN(C)C1=O | inactive: > 100 µM
18 | COc1cc(O)c2c(O)c3c(c4c2c1[C@]1(C4)C(C)=CCCC1(C)C)[C@H](O)[C@@]1(O)CC(O)=C(C(N)=O)C(=O)[C@@]1(O)C3=O | active: 0.444 µM
19 | Cc1ccc2c(c1)/C(=N/Nc1ccccc1[N+](=O)[O-])C(=O)N2 | inactive: > 100 µM
20 | O=C(C(=O)n1ncc(Cl)c(Cl)c1=O)n1ncc(Cl)c(Cl)c1=O | inactive: > 100 µM
21 | CC(C)C(=O)/C=C/c1ccc(Cl)c(Cl)c1 | inactive: 32.1 µM
22 | Cc1c(/N=N/c2ccc([N+](=O)[O-])cc2)nc2scc(-c3ccccc3)n12 | inactive: > 100 µM

Row | SMILES | GI50
23 | O=[N+]([O-])c1cc(/N=N/c2c(O)ccc3cc(S(=O)(=O)O)ccc23)c(O)c([N+](=O)[O-])c1 | inactive: > 100 µM
24 | Cc1nc2c(O)cc3c4c(=O)n(C)c(=O)n(C)c4n(Cc4ccccc4)c3c2nc1C | inactive: 27.6 µM
25 | NNC(=O)C(=O)N/N=C1/CCCC1C(=O)CCC(=O)Nc1ccc(Cl)cc1 (configuration not stated) | inactive: > 100 µM
26 | [N-]=[N+]=Nc1c(Br)c(=O)[nH]c(=O)n1COCCO | inactive: > 100 µM
27 | CCOC(=O)c1c(SC(=O)/C=C/c2ccccc2)n(-c2ccccc2)c(=S)n(-c2ccccc2)c1=O | inactive: > 100 µM
28 | CC1OC(OC2C(OC(=O)[C@]34CCC(C)(C)C[C@H]3C3=CC[C@@H]5[C@@]6(C)CC[C@H](OC7OC(CO)C(O)C(O)C7OC7OC(CO)C(O)C(O)C7O)C(C)(C)[C@@H]6CC[C@@]5(C)[C@]3(C)CC4)OCC(O)C2O)C(O)C(OC2OCC(O)C(O)C2O)C1OC1OCC(O)C(OC2OCC(O)C(O)C2O)C1O (some centres not stated) | inactive: 6.21 µM
29 | Cc1ccc(NC(=O)c2cccc(OP(=O)(Nc3ccc(C)cc3)Nc3ccc(C)cc3)c2)cc1 | inactive: 30.3 µM
30 | CC(=O)n1cc(CC(C)O)c(=O)[nH]c1=O (configuration not stated) | inactive: > 100 µM
31 | COC1C2C=CC(C2)[C@H]1[N+](=O)[O-] (some centres not stated) | inactive: > 100 µM
32 | COc1ccc(N2C(=O)/C(=C\c3ccccc3)SC2c2cc(OC)c(OC)c(OC)c2)cc1 (configuration not stated) | inactive: 50.8 µM
33 | COC1C(OC(=S)Nc2ccccc2)c2ccccc2N1C(C)=O (configuration not stated) | inactive: > 100 µM
34 | C[Si](C)(N[Si](C)(C)OCCc1ccccc1)OCCc1ccccc1 | inactive: > 100 µM
35 | O=C(c1ccccc1)c1ccc2[nH]c(-c3c(Cl)c(Cl)c(Cl)c(Cl)c3C(=O)N/N=C\C=C\c3ccccc3)nc2c1 | inactive: 85.3 µM
36 | CC(=O)Nc1ccc(S(=O)(=O)Nc2nnc(S(N)(=O)=O)s2)cc1 | inactive: > 100 µM
37 | O=C(c1ccccc1)c1oc2ccc(Br)cc2c1-c1cnn(-c2ccccc2)c1 | inactive: > 100 µM
38 | CC(=O)Nc1ccccc1SCCSSCCSc1ccccc1NC(C)=O | inactive: 58.2 µM
39 | COC(=O)[C@@H]1OC(C)(c2ccccc2)O[C@H]1C(=O)OC | inactive: > 100 µM
40 | CC1CCC(C(C)C)C(O[C@@H]2OC(=O)C[C@@H]2Sc2ccccc2)C1 (some centres not stated) | inactive: 32 µM
41 | O=C(O)c1ccc(OCc2nc3cc(C(F)(F)F)ccc3nc2-c2ccccc2)cc1 | inactive: 64.1 µM
42 | Nc1ccc2c(c1)Nc1c3ccccc3nc3cccc-2c13 | inactive: 1.31 µM
43 | O=C(Nc1ccccc1)n1cc(-c2ccccn2)c(N2CCOCC2)n1 | inactive: 15.4 µM
44 | C[C@]12CC[C@H]3[C@@H](CC[C@]4(O)C[C@@H](O)CC[C@]34C=O)[C@@]1(O)CC[C@@H]2C1=CC(=O)OC1 [STROPHANTHIDIN] | active: 0.918 µM

Row | SMILES | GI50
45 | COc1ccc(-c2ccc(C(=O)C=P(c3ccccc3)(c3ccccc3)c3ccccc3)cc2)cc1 | inactive: 14.3 µM
46 | CO[C@]12C[C@H](CNC(=O)c3ccc[nH]3)O[C@H]1NC(=O)N2 | inactive: > 100 µM
47 | NC(CCSC(F)F)C(=O)O (configuration not stated) | inactive: > 100 µM
48 | CCOC(=O)C(Cc1c2ccccc2cc2ccccc12)(NC(C)=O)C(=O)OCC | inactive: > 100 µM
49 | COc1ccc(-c2c(C#N)c(N)n(C3OC(CO)C(O)C(O)C3O)c(=S)c2C#N)cc1 (configuration not stated) | inactive: > 100 µM
50 | S=C(/N=c1\sc(NCc2ccccc2)nc2sc3c(c12)CCN(N1CCc2c(sc4nc(NCc5ccccc5)s/c(=N\C(=S)NCc5ccccc5)c24)C1)C3)NCc1ccccc1 | inactive: 32.8 µM
51 | Cc1ccc2c(O)cc(-c3sccc3C)nc2n1 | active: 0.966 µM
52 | NS(=O)(=O)c1ccc(CNC(=S)NC(=O)Nc2ccc(Cl)c(Cl)c2)cc1 | inactive: 32.9 µM
53 | COc1c2c3c4c(c(OC)c(=O)c5c(O)cc(OC)c(c6c(OC)cc(O)c(c1=O)c63)c54)C(C(C)O)C2C(C)O (configuration not stated) | inactive: 1.96 µM
54 | C1C2CC3CC1CC(Nc1nc(NC45CC6CC(CC(C6)C4)C5)nc(NC45CC6CC(CC(C6)C4)C5)n1)(C2)C3 | inactive: 21.9 µM
55 | CC1(C)CCOC(Sc2ccccc2)C1 (configuration not stated) | inactive: > 100 µM
56 | COc1ccc([C@@H]2OC(=O)C3C2C(=O)O[C@H]3c2ccc(OC)cc2)cc1 (some centres not stated) | inactive: > 100 µM
57 | CC(=O)OCC1OC(n2c(-c3ccccc3)c(C(C)=O)c(-c3cccc4ccccc34)c(C#N)c2=S)C(OC(C)=O)C(OC(C)=O)C1OC(C)=O (configuration not stated) | inactive: > 100 µM
58 | COc1cc(C)c2c(c1C)OC(=O)c1c(C)c(Cl)c(O)c(C=O)c1O2 | inactive: 21.5 µM
59 | Nc1ccc(Oc2ccc(C3(c4ccc(Oc5ccc(N)c(O)c5)cc4)C4CC5CC(C4)CC3C5)cc2)cc1O | inactive: 1.15 µM
60 | N=c1c2c(=S)n(-c3ccccc3)c(=S)n(-c3ccccc3)c2nc(SCCCN2CCCCC2)n1-c1ccccc1 | inactive: 1.88 µM
61 | COc1ccc(-c2coc3cc(O)ccc3c2=O)cc1 [FORMONONETIN] | inactive: > 100 µM
62 | C=CCn1c(=O)c(C(=O)Nc2nc(C34CC5CC(CC(C5)C3)C4)cs2)c(O)c2ccccc21 | inactive: 45.5 µM
63 | CC(=O)N1C(Nc2nccs2)CCN1c1ccccc1 (configuration not stated) | inactive: > 10 µM
64 | CN(C)c1ccc(C(=C(c2ccc(N(C)C)cc2)c2ccc(N(C)C)cc2)c2ccc(N(C)C)cc2)cc1 | inactive: 31.6 µM
65 | COCn1c(C)c(C)c2c(=O)oc(C)nc21 | inactive: > 100 µM
66 | CCCCCCCCCCCCCC(=O)NO | inactive: 16.9 µM

Row | SMILES | GI50
67 | NC(=O)OCC(COc1ccc(Cl)cc1)OC(=O)c1ccccc1Cl (configuration not stated) | inactive: 31.8 µM
68 | Cc1ncc([N+](=O)[O-])n1CCNS(=O)(=O)CCCn1ccnc1[N+](=O)[O-] | inactive: > 100 µM
69 | Nc1nccc(NCC2(CO)CC(CCc3ccccc3)C2)n1 (configuration not stated) | inactive: 19.1 µM
70 | O=C(/C=C/c1ccc(Cl)cc1)Oc1ccc(/C=C2\CCCCC2=O)cc1 | inactive: > 100 µM
71 | CCCN(CCC)c1c([N+](=O)[O-])cc(C(=O)N(CCO)CCO)cc1[N+](=O)[O-] | inactive: > 100 µM
72 | COc1ccc(N/N=C2\CCOc3ccc(C)cc3C2=O)cc1 | inactive: 60.7 µM
73 | C[C@]12CC[C@@H]3c4cc(OCC(F)(F)F)c(O)cc4CC[C@H]3[C@@H]1CC[C@@H]2O | inactive: 2.11 µM
74 | C/C(=N\NC(=N)N)C(CN(CC(C)C)CC(C)C)C(=O)Nc1ccc(C)cc1C (configuration not stated) | inactive: > 100 µM
75 | COc1cc2c3c([nH]c2c(OC)c1OC)CCN(Cc1ccccc1)C3 | inactive: 42.6 µM
76 | O=C(/C=C/c1cccc2ccccc12)c1ccccc1 | inactive: 12.3 µM
77 | COc1ccc(/C=C2\CNC/C(=C\c3ccc(OC)cc3)C2=O)cc1 | inactive: 77.4 µM
78 | COc1ccc(/C=C2\CCC(CNc3ccc(OC)cc3)C2=O)cc1 (configuration not stated) | inactive: > 100 µM
79 | CCOC(=N)CC(=O)Nc1cccc(Cl)c1 | inactive: > 100 µM
80 | Cc1ccc(C(=O)c2nnc(C(=O)c3ccc(C)cc3)nn2)cc1 | inactive: 37.8 µM
81 | OCCCc1cnco1 | inactive: > 100 µM
82 | N#CN1CCC2CC(=O)CCC2C1 (configuration not stated) | inactive: > 100 µM
83 | Nc1nncc2[nH]cnc12 | inactive: 73.6 µM
84 | Cc1cn([C@H]2C[C@H](O)[C@@H](CO)O2)c(=O)nc1N | inactive: > 100 µM
85 | O=C(CN1CCN(C(=O)OCc2ccccc2)CCN(CC(=O)N2CCCCC2)CCN(C(=O)OCc2ccccc2)CC1)N1CCCCC1 | inactive: 21.1 µM
86 | C/C(=N\NC(=O)CC(=O)Nc1ccc(Cl)cc1)c1cc2ccccc2oc1=O | inactive: > 100 µM
87 | CCOC1OC(COC(=O)C(C)(C)C)C(O)CC1n1cc(C)c(=O)[nH]c1=O (configuration not stated) | inactive: > 100 µM
